The results in this text go back to ChEMBL document CHEMBL1157539, “Thousands of chemical starting points for antimalarial lead identification” (Nature, 2010).

Over roughly 13,000 compounds, “IFI” has its median near 4; the highest 2% begin near 17. Some of the results follow.

A short description of this assay: GSK_TCMDC: Inhibition Frequency Index (IFI). The number of non-kinase HTS assays where a compound showed > 50 % inhibition, expressed as a percentage of the number of such assays in which the compound was tested (-0 is zero). The assay is classed as functional.
In turn, `CC1(C)C2C=C(CN3CCC(NC(=O)Nc4ccc(Cl)c(Cl)c4)CC3)C1CC2` (stereo not drawn) came in with an IFI of 8.59%. The compound `Cc1ccc(NC(=O)c2ccc(CN3CCCN(Cc4cccc(O)c4)CC3)cc2)cc1C` returned an IFI of 9.09%. Compound `O=C(CN1CCCC1)Nc1cccc(C(=O)Nc2cccc(C(F)(F)F)c2)c1` came in with an IFI of 1.74%. With `Cc1ccc(O)cc1C[C@@H]1C(=O)CC[C@@]2(C)[C@H]1CC[C@]2(C)O`, the IFI is -0%. For `Cc1cc(NC(=O)c2ccco2)ccc1OC1CCN(Cc2ccc(F)cc2)CC1` the value was 0%. Take `COc1ccc(-c2cn3c(C(=O)Nc4ccccc4Cl)c(-c4ccccc4)c4c3n2CCCC4)cc1`: the IFI was 0%. As to `Cc1c(C(=O)Nc2cc(Sc3ccc(F)cc3)cc([N+](=O)[O-])c2)sc2ncn(Cc3ccccc3F)c(=O)c12`, the IFI is 0.87%. `COc1ccc(CNC2CCN(C)CC2)cc1-c1ccc(S(=O)(=O)NCc2ccccc2)c(F)c1` displayed an IFI of 10.6%. For `Cn1nc(C(F)(F)F)c(-c2ccc(F)cc2)c1NC(=O)Nc1ccc(F)cc1F` the value was 8.05%. In the case of `COc1cc2c(cc1C=CC(=O)N1CCN(Cc3nc(O)c4c(C)c(C)sc4n3)CC1)OC(C)C2` (stereo not drawn) it was 1.96%. Compound `Nc1ncc(-c2cccc(F)c2)cc1-c1nc2cc(F)ccc2[nH]1` had an IFI of 13.8%. With `COc1ccc2ccccc2c1C=NN=c1cc(C)[nH]c2cc(C(F)(F)F)ccc12`, the IFI worked out at 0.75%. The compound `COC(=O)c1ccc(C(=O)NCCCCN2CCC(c3ccc4c(c3OC)CCCC4)CC2)cc1-c1ccc(C(F)(F)F)cc1` came in with an IFI of 11.4%.

The compound `NCCCNc1ccnc2cc(Cl)ccc12` yielded an IFI of 0%. For `CCNc1cc(C(=O)N[C@@H](Cc2ccccc2)[C@H](O)CN[C@H]2CCc3ccccc32)cc(N2CCCC2=O)c1` the value was 2.17%; for `c1ccc(CNCc2ccc(-c3ccc(-c4nc5ccccc5[nH]4)cc3)cc2)cc1`, 13.1%; for `CC(C)[C@H](NC(=O)c1ccc(O)c(-c2cccc(C(F)(F)F)c2)c1)C(=O)NC1CCCc2ccccc21` (stereo partly drawn), 2.92%. As to `COc1ccc2nccc([C@@H](O)CN3CCC(NC(=O)Cn4nc(-c5ccc(C(F)(F)F)cc5)ccc4=O)CC3)c2c1`, the IFI stood at 0.74%. `COc1cc2nc(NCCc3ccccc3)nc(NCCCc3ccccc3)c2cc1OC` yielded an IFI of 11.4%.

Turning to `CCCC(N)C(=O)NC1CCN(c2c(F)c(N)c3c(=O)c(C(=O)O)cn4c3c2Oc2ccccc2-4)C1` (stereo not drawn), the IFI came to 10.9%. `CC(C)(C)c1cc(C(=O)Nc2cccnc2)cc(C(=O)Nc2cccnc2)c1` had an IFI of 0%. For `CN1CCN(c2cccc(-c3nnc(-c4ccc(OCC(=O)NCc5ccc(C(F)(F)F)cc5)c([N+](=O)[O-])c4)o3)c2)CC1` the value was 4.32%; for `CC[C@H](C)CNC(=O)c1cncc(-c2ccc(CN(C)C3CCN(C)CC3)cc2)c1`, -0%; for `CCCOc1ccc(C(F)(F)F)cc1NC(=O)c1nc2nc(C)cc(C)n2n1`, 1.01%.

With `CCCCCCN1CCC(NCc2ccc(C)cc2)CC1`, the IFI was found to be 3.4%. In turn, `Cc1cc(N2CCN(CC3CCCCC3)CC2)nc(Nc2ccc(Br)cc2)n1` returned an IFI of 2.67%. Take `COc1ccc(NS(=O)(=O)c2cccc(C(=O)Nc3ccc(C(F)(F)F)cc3)c2)cc1N1CCN(CC(C)C)CC1`: the IFI amounted to 2.84%. For `Cc1ccc2c(=O)cc(CCc3cccc(F)c3F)n(CC(=O)N(Cc3ccc(-c4ccc(C(F)(F)F)cc4)cc3)C3CCN(C)CC3)c2n1` the value was 8.51%; for `O=C(Nc1ccsc1)Nc1cccc(-c2cccc(-c3nc4ccccc4[nH]3)c2)c1`, 4.04%.

`COc1ccc(Cc2c(N)nc3nc(N)nc(N)c3c2C)cc1` showed an IFI of 2.92%. For the compound `Cc1ccc(Nc2ccnc3ccc(C(F)(F)F)cc23)cc1O`, the IFI was found to be 2.92%. `CC(C)Sc1nc(-c2ccccc2)nc2c1COC(C)(C)C2` returned an IFI of 0%. In the case of `COc1cccc(Cc2c(C)nc3nc(N)nc(N)c3c2C)c1` it was 2.19%; in that of `Cc1ccc(/C=C/C(=O)NCCCCCN2CCC(c3c[nH]c4ccccc34)CC2)cc1`, 6.29%; in that of `O=C(NCc1cccc(Cl)c1)c1ccc(CNC2CCN(Cc3ccccc3)CC2)cc1`, 2.22%.

The compound `CN(CCCc1c[nH]c2ccccc12)CC1CCN(C(=O)/C=C/c2ccc(Cl)c(Cl)c2)CC1` registered an IFI of 9.77%. With `CCCCCCc1cc2cc(-c3nc(-c4ccc(OC)cc4)cs3)c(=O)oc2cc1O`, the IFI turned out to be 4.46%. As for `CC1(C)N=C(N)N=C(N)N1CCc1ccccc1`, the IFI amounted to 0.73%. In turn, `Cc1cc(N2CCN(C(=O)OC(C)(C)C)CC2)ccc1N` came in with an IFI of 5.04%. With `CC(C)N(Cc1cnc(N)c(C#N)n1)c1ccc(Cl)c(Cl)c1`, the IFI is 3.65%. As to `Nc1ncc(-c2cn[nH]c2)cc1-c1nc2ccc(F)cc2[nH]1`, the IFI turned out to be 6.06%.

Take `Cc1cccc(C)c1OC(=O)C(C)C(O)C1(Sc2ccccc2)CCN(C)CC1` (stereo not drawn): the IFI worked out at 0.75%.

In the case of `CCCC(C)c1cnc2nc(N)nc(N)c2c1C` (stereo not drawn), the IFI came to 2.14%. `N=C(N)c1ccc(NC(=O)c2cc(Sc3ccc(O)c(C(=O)Nc4ccc(C(=N)N)cc4)c3)ccc2O)cc1` yielded an IFI of 9.52%. In the case of `Cc1cccc2nc(-c3cccc(-c4cccc(NC(=O)c5cn(C)c(=O)n5C)c4)c3)[nH]c12` it was 5.56%; in that of `CC(=O)Nc1ccc(C(=O)Nc2cccc(-c3csc(-c4nc5ccccc5[nH]4)c3)c2)cn1`, 1.85%; in that of `O=C(NC1CCN(Cc2ccccc2)CC1)c1ccc(-c2nc3cc(F)c(F)cc3[nH]2)s1`, 0%.

Consider `CCOc1ccc(C(=O)Nc2cc(Cl)ccc2O)cc1Cl`, for which the IFI came to 2.88%.

Turning to `O=C(Nc1ccccc1)N(Cc1cccc(-c2ccc(CNCCc3ccccc3)cc2)c1)C1CCN(Cc2ccccc2)CC1`, the IFI was 12.8%. `Oc1ccc(CCCNc2nc(NCc3ccccc3-c3ccccc3)nc(N3CCNCC3)n2)cc1`: the IFI came out at 14.9%. With `Cc1cccc2nc(-c3ccc(-c4cccc(NC(=O)c5cnn6cccnc56)c4)cc3)[nH]c12`, the IFI amounted to 5.71%. In turn, `COc1ccc(-c2nc(NC(=O)Cc3cccc(OC)c3)sc2C)cc1` gave an IFI of 1.85%. In the case of `Nc1nc(N)c2cc(C#Cc3ccc(-c4ccccc4)cc3)ccc2n1` it was 0.74%. For `O=C(Nc1ccc(Oc2ccccc2)cc1)N[C@@H](Cc1ccc(O)cc1)C(=O)NC1CCN(Cc2ccc(O)c([N+](=O)[O-])c2)C1` (stereo partly drawn) the value was 2.9%; for `Cc1cccc2nc(-c3ccc(-c4ccc(CN5CCN(CCN6CCOCC6)CC5)cc4)cc3)[nH]c12`, 4.23%; for `CC(C)CCN1CCC(Oc2ccc(NC(=O)c3cccs3)cc2Cl)C1` (stereo not drawn), 10.9%.

Regarding `OCC1CCCCN1Cc1cccc(-c2cccc(-c3nc4ccccc4[nH]3)c2)c1` (stereo not drawn), the IFI amounted to 2.82%. In the case of `COc1ccc(CNCc2ccc(-c3ccc(-c4nc5cc(F)ccc5[nH]4)cc3)cc2)cc1` it was 13.1%; in that of `COc1cc2c(cc1OC)C(C(=O)c1ccccc1)=NCC2`, 0.71%.

Take `O=C(CCc1c[nH]cn1)Nc1cccc(-c2ccc(-c3nc4ccccc4[nH]3)s2)c1`: the IFI is 0.88%. For the compound `O=C(Nc1ccc(Cl)c(C(F)(F)F)c1)NC1CCN(CCCCCNC(=O)C2CC2c2ccc(Cl)c(Cl)c2)CC1` (stereo not drawn), the IFI was determined as 17.1%. For `COc1ccc(Cn2c(=O)[nH]c3cc(C(=O)NC4CCN(Cc5ccccc5)CC4)ccc3c2=O)cc1` the value was 5%. The compound `COc1ccc(C2CC(=O)C3=C(C2)NC(C)=C(C(=O)OC2CCCC2)C3c2ccc(O)cc2)cc1OC` (stereo not drawn) showed an IFI of 2.84%. Consider `COc1cc(NC(=O)CCCCCCCN2CCN(C)CC2)c2ncccc2c1`, for which the IFI was -0%. For `O=C(C=Cc1ccc(Cl)c(Cl)c1)NCCCCCN1CCC(CCNS(=O)(=O)c2ccc(Br)cc2)CC1`, the IFI amounted to 10.8%. In turn, `O=C(NCCCCN1CC=C(c2ccc3c(c2OCc2ccccc2)CCCC3)CC1)c1ccc(-c2ccc(C(F)(F)F)cc2)cc1` had an IFI of 7.83%. In turn, `O=C(/C=C/c1ccc(Cl)cc1)NCCCCCN1CCCC(C(=O)Nc2ccc(Cl)c(Cl)c2)C1` (stereo not drawn) showed an IFI of 12.2%.

`COc1cc(F)c2ncc(F)c([C@@H](O)CN3CCC(NCc4cc5c(cn4)OCCO5)CC3)c2c1` came in with an IFI of 0%. `CCN(CCCN1CCCCC1)c1cc(C)nc(Nc2cc(C)ccc2C)n1`: the IFI was 2.56%. For `CC(C)(C)OC(=O)NCc1ccc(Nc2nnc(-c3ccc(OCC(=O)NCc4cc(C(F)(F)F)cc(C(F)(F)F)c4)c([N+](=O)[O-])c3)o2)cc1`, the IFI was determined as 8.45%. `CS(=O)(=O)CCNCc1cccc(-c2cc3nccc(Nc4ccc(Oc5ccccc5)cc4)c3cc2Cl)c1` yielded an IFI of 2.16%. For `O=C(Nc1ccc(C(F)(F)F)cc1)NC1CCN(CCCCCNC(=O)C2CC2c2ccc(Cl)c(Cl)c2)CC1` (stereo not drawn) the value was 11.1%. Consider `O=C(Nc1cccc2ccccc12)N1CCC(NS(=O)(=O)c2cccc(C(F)(F)F)c2)CC1`, for which the IFI was determined as 1.47%. In the case of `Cc1cc(NCCC(=O)Nc2ccccc2)nc(NCCc2cccnc2)n1` it was 2.44%; in that of `CCCCCNC(=N)c1ccc(OCCCCCOc2ccc(C(=N)NCCCCC)cc2)cc1`, 5%.

In the case of `Cc1cc(N[C@@H](Cc2ccccc2)C(=O)NCCOc2ccccc2)nc(NCC2CCCCC2)n1`, the IFI came to 16.7%. For the compound `COc1c(C2CCN(CCCCNC(=O)c3ccc(-c4ccc(NC(=O)C(F)(F)F)cc4)cc3)CC2)ccc2c1CCCC2`, the IFI came out at 9.92%.

For `Fc1ccc2[nH]c(-c3cccc(-c4ccc(CN5CCC(CCN6CCCCC6)CC5)cc4)c3)nc2c1`, the IFI was 8.33%.

In turn, `O=C(Nc1cccc(-c2nn3ccccc3c2-c2ccnc(Nc3ccccc3)n2)c1)c1c(F)cccc1F` had an IFI of 4.42%. For `COc1ccc(C=CC(=O)NC(=O)c2ccccc2OC(=O)c2ccccc2)cc1OC` the value was 7.25%; for `CC[C@H](C)CNC(=O)c1ccnc(-c2ccc(CN3CCC(N4CCCC4)CC3)cc2)c1`, 1.61%. In turn, `CC(C)(C)NC(=O)C(c1ccc(F)cc1)N(C(=O)c1ccc(CN2CCOCC2)o1)c1ccc(C2CCCCC2)cc1` (stereo not drawn) came in with an IFI of 5.04%. Turning to `CCc1c(CCNCCCCCCNCCc2ccc(OC)c(OC)c2CC)ccc(OC)c1OC`, the IFI stood at 6.47%.

Compound `C=CCNC(CCCCC)c1ccc(OCCOc2ccc(C(CCCCC)NCC=C)cc2)cc1` (stereo not drawn) displayed an IFI of 18.3%. In the case of `O=C(NC1CCCCN(Cc2ccc3c(c2)OCCO3)C1)c1cc(-c2ccccc2F)cs1` (stereo not drawn) it was 1.96%.

Regarding `O=C1C(c2ccccc2)=C(Nc2ccc([N+](=O)[O-])cc2)c2ccccc21`, the IFI was found to be 3.03%. As to `CC[C@H](C)CNC(=O)c1cncc(-c2cccc(CN(C)C3CCN(C)CC3)c2)c1`, the IFI is -0%. Regarding `CCN(CC)CCCNc1nccc(N2CCc3ncnc(Nc4ccc(OCc5cccc(F)c5)c(Cl)c4)c3C2)n1`, the IFI worked out at 16.1%.
